According to PubChem BioAssay AID624417 (National Center for Advancing Translational Sciences (NCATS), 2012):
Hit rate of the full screen: of about 410,000 compounds, about 6,400 (1.6%) were called active. This list was built around the results that the source calls inconclusive (neither active nor inactive); the mix of calls is not that of the screen. The call rests on the fitted dose curve; in most records, active means well fitted inhibition curve with a large enough effect; inconclusive means small, poorly fitted or top-dose-only effect; inactive means no such curve, though single readings can be large or run the other way. Potencies beside an inconclusive call are fits to weak or partial responses and may not hold up.

Biological target: Glucagon-like peptide 1 receptor (Homo sapiens) (UniProt P43220)
UniProt P43220, sequence (P43220 whole entry, looked up): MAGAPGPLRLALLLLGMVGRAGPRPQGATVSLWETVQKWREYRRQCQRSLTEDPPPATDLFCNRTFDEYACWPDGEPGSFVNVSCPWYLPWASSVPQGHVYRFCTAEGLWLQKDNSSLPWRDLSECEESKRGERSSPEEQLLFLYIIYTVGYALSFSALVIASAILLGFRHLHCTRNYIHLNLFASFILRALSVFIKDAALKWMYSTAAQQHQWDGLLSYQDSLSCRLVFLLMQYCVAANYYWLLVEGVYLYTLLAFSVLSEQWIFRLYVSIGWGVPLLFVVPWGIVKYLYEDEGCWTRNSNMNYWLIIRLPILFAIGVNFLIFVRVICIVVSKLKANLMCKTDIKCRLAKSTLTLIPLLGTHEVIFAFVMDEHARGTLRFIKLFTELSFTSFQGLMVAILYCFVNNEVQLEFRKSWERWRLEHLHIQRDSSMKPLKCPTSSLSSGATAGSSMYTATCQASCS
Assay: qHTS of GLP-1 Receptor Inverse Agonists (Inhibition Mode); further: nearly all actives have a fitted effect of over 55% in size
Conditions: HEK293 GLP-1R CRE-luciferase, luminescence, 24 h, GLP-1R form is constitutively active; activity change, negative = inhibition: at 38.3 µM (top of the series) unless noted
How it was run: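 Constitutively active GLP-1R drives a cAMP-responsive luciferase in stably transfected HEK293 cells; test compounds are added after overnight (12 h) attachment and left 24 hr, and signal loss in luminescence marks inhibition.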
On the % scale 0 is the no-effect control and ±100 the full control effect; potency means the concentration at half of the fitted maximal effect; tags describe the fitted curve by direction and shape.

Row | SMILES | Potency | activity change, negative = inhibition
1 | Cc1ccc(S(=O)(=O)NCCCCCC(=O)NC(C)(C)CO)cc1 | inactive | –
2 | COC(=O)c1cc2c(-c3ccccc3)cc3ccccn3c-2c1C(=O)OC | active: 7.94 µM | –
3 | CCOC(=O)Cc1c(C)nc2c(-c3ccc(Cl)cc3)c[nH]n2c1=O | inconclusive: 28.2 µM [inhibitor, single point] | –
4 | CCc1ccc(-n2c(CCC(=O)O)ccc2-c2cccs2)cc1 | inactive | –
5 | Nc1ccc(C(=O)NN2C(=O)[C@H](Cl)C2c2ccc(Cl)cc2)cc1 (some centres undefined) | inconclusive: 14.1 µM [inhibitor, single point] | –
6 | CCOC(=O)Nc1ccc2c(c1)N(C(=O)CCCl)c1ccccc1[S@]2=O | inconclusive: 28.2 µM [inhibitor, single point] | –
7 | COc1ccc(CCNC(=O)C(=O)NCCC2CCCCN2S(=O)(=O)c2cccs2)cc1 (centres undefined) | inconclusive: 12.6 µM [inhibitor, partial curve, poor fit] | –
8 | COc1cc(NC(=NS(=O)(=O)c2ccccc2)c2ccccc2)ncn1 | inactive | –
9 | Cc1ccc2nc3c(cc2c1)CN(Cc1ccco1)C(=NCC1CCCO1)S3 (centres undefined) | active: 2.24 µM | –
10 | CC(=O)N1CCc2c(sc3c2c(=O)n(CCc2ccccc2)c(=O)n3Cc2ccc(F)cc2)C1 | inconclusive: 11.2 µM [inhibitor, single point] | –
11 | CC(CN1CCOCC1)OC(=O)c1ccc(C(C)(C)C)cc1 (centres undefined) | inconclusive: 10 µM [inhibitor, partial curve, poor fit] | –
12 | CC(=O)c1ccc(NC(=O)NC2CCCCCCC2)cc1 | inconclusive: 3.98 µM [inhibitor, partial curve, poor fit] | –
13 | CN1CCN(C(=O)c2ccc(CNS(=O)(=O)c3cccc(Cl)c3)cc2)CC1 | inconclusive: 3.55 µM [inhibitor, full curve] | –
14 | CCOC(=O)C1(Cc2ccccc2C(F)(F)F)CCN(C2CCSC2)CC1 (centres undefined) | inconclusive: 11.2 µM [inhibitor, partial curve, poor fit] | –
15 | O=C(CCC(=O)Nc1ccc(F)cc1)N/N=C/c1ccc(O)cc1 | – | inconclusive: -39% [inhibitor]
16 | CC(NC(=S)Nc1ccc([N+](=O)[O-])cc1)c1ccncc1 (centres undefined) | inconclusive: 7.08 µM [inhibitor, partial curve, poor fit] | –
17 | CCOc1ccc(S(=O)(=O)N2CCN(C)CC2)cc1NC(=O)c1ccccc1F | inconclusive: 35.5 µM [inhibitor, partial curve, poor fit] | –
18 | NS(=O)(=O)c1ccc(NC(=O)/C=C/c2cn(-c3ccccc3)nc2-c2cccc(Cl)c2)cc1 | – | inconclusive: -74.9% [inhibitor] [at 7.66 µM]
19 | O=C(Cn1c(=O)c2cccn2c2ccc(F)cc21)NCc1cccc(Cl)c1 | inactive | –
20 | Fc1cc(F)cc(-c2c(-c3ccccc3)ncc3ccc(F)cc23)c1 | inconclusive: 3.16 µM [inhibitor, full curve, poor fit] | –
21 | COCC(C)N1CCC(Oc2cccc(C(=O)NCCc3ccccc3)c2)CC1 (centres undefined) | inconclusive: 12.6 µM [inhibitor, partial curve] | –
22 | COc1ccc(C2C(C(=O)OC(C)C)=C(C)N=c3s/c(=C\c4cccs4)c(=O)n32)cc1 (centres undefined) | inconclusive: 28.2 µM [inhibitor, single point] | –

Row | SMILES | Potency | activity change, negative = inhibition
23 | COc1cccc(-c2csc(N3CCN(C(=S)Nc4ccccc4Cl)CC3)n2)c1 | inconclusive: 31.6 µM [inhibitor, single point] | –
24 | O=C(CN1CCCC1)N1CCCC(c2ccc(F)cc2)c2ccc(F)cc21 (centres undefined) | inconclusive: 22.4 µM [inhibitor, single point] | –
25 | CC1=NN(c2ccccc2)C(=O)C1C=Nc1ccc(N(C)C)cc1 (centres undefined) | inconclusive: 28.2 µM [inhibitor, single point] | –
26 | CCc1cccc2c(-c3ccccc3)nc(SCC(=O)Nc3ccc(OC)cc3)nc12 | inactive | –
27 | O=C(COC(=O)C12CC3CC(CC(O)(C3)C1)C2)Nc1ccc(Br)cc1F | inconclusive: 10 µM [inhibitor, single point] | –
28 | CC(=O)c1ccc(N2Cc3ccccc3C2=NC(=O)c2cccs2)cc1 | inconclusive: 7.08 µM [inhibitor, partial curve, poor fit] | –
29 | Cc1c(C(=O)NCc2ccc3c(c2)OCCO3)sc(=O)n1Cc1cccc(C(F)(F)F)c1 | inconclusive: 31.6 µM [inhibitor, partial curve, poor fit] | –
30 | O=C(c1ccc(-c2ccccc2)cc1)N1CCN(c2ncccn2)CC1 | inconclusive: 28.2 µM [inhibitor, single point] | –
31 | N=c1occ(C(=O)c2cc(F)ccc2O)cc1C(=O)NC1CCCCC1 | inconclusive: 12.6 µM [inhibitor, single point] | –
32 | N#Cc1ccccc1Cn1c(SCC(=O)NCc2ccccc2)nc2ccccc21 | inactive | –
33 | Cc1cc(Cl)ccc1OCCCC(=O)NNC(=O)c1ccccc1O | inconclusive: 28.2 µM [inhibitor, single point] | –
34 | OC(CN1CCN(c2cccc(C(F)(F)F)c2)CC1)c1c[nH]c2ccccc12 (centres undefined) | inconclusive: 1.58 µM [inhibitor, full curve, poor fit] | –
35 | Cc1sc2nc(SCC(=O)C(C)(C)C)n(Cc3ccco3)c(=O)c2c1C | inconclusive: 3.55 µM [inhibitor, partial curve, poor fit] | –
36 | CCOc1ccc(CCNC(=O)CSCc2nc(-c3cccc(C)c3)oc2C)cc1OCC | inconclusive: 20 µM [inhibitor, single point] | –
37 | CCOC(=O)C1CCN(CC(=O)Nc2c(C(=O)OC)[nH]c3ccc(Cl)cc23)CC1 | inconclusive: 28.2 µM [inhibitor, single point] | –
38 | Nc1nonc1-c1nc2ccccc2n1CC(=O)Nc1ccccc1C(=O)O | inconclusive: 10 µM [inhibitor, partial curve] | –
39 | Cc1cc(S(=O)(=O)Nc2ccc(C(=O)NCC3(N4CCCCC4)CCCCC3)cc2)ccc1F | inconclusive: 14.1 µM [inhibitor, single point] | –
40 | CCCCCn1c(CN2CCN(c3cccc(Cl)c3)CC2)nc2c1c(=O)n(C)c(=O)n2C | inconclusive: 22.4 µM [inhibitor, single point] | –
41 | CSC(=S)N/N=C/c1ccc(N(C)C)cc1 | inactive | –
42 | CCOc1ccccc1N(C)S(=O)(=O)c1ccc2[nH]cc(C(=O)N(CCOC)CCOC)c(=O)c2c1 | inactive | –
43 | Fc1ccc(Nc2nc(NCc3ccccc3)nc3ccsc23)cc1 | inconclusive: 28.2 µM [inhibitor, single point] | –
44 | CCOC(=O)c1cnc(-n2nc(C)cc2C)nc1NCc1ccc2c(c1)OCO2 | active: 3.55 µM | –

Row | SMILES | Potency | activity change, negative = inhibition
45 | Cc1ccc(S(=O)(=O)N2CCOCC2)cc1C(=O)N1CCN(Cc2ccccc2)CC1 | inconclusive: 5.62 µM [inhibitor, partial curve] | –
46 | C[C@H](CO)N1C[C@H](C)[C@H](CN(C)S(=O)(=O)c2cccs2)Oc2ccc(NC(=O)Nc3ccc4c(c3)OCO4)cc2CC1=O | inconclusive: 12.6 µM [inhibitor, single point] | –
47 | CCN(CC)CCn1c(N)c(S(=O)(=O)c2ccccc2)c2nc3ccccc3nc21 | inconclusive: 10 µM [inhibitor, partial curve] | –
48 | O=C(Nc1ccc(N2CCN(C(=O)c3ccco3)CC2)c(Cl)c1)c1cccs1 | inconclusive: 7.94 µM [inhibitor, partial curve, poor fit] | –
49 | Cc1ccnc(NC(c2ccccn2)c2c(C)[nH]c3ccccc23)c1 (centres undefined) | inconclusive: 28.2 µM [inhibitor, single point] | –
50 | CCOc1cc2[nH]c(=S)n(CCOC)c(=O)c2cc1OCC | inactive | –
51 | CCOC(=O)c1c(C)[nH]c(N=Nc2cccc(C)c2)c1C | inconclusive: 28.2 µM [inhibitor, single point] | –
52 | CCc1ccc(CN2CCC(n3nccc3NC(=O)C3CCCC3)CC2)cc1 | inconclusive: 31.6 µM [inhibitor, partial curve, poor fit] | –
53 | CCOc1ccccc1NC(=O)NCc1ccccc1 | inconclusive: 31.6 µM [inhibitor, partial curve, poor fit] | –
54 | Cc1ccc(C(=O)OCC(=O)N(CCc2ccccc2)Cc2ccccc2)cc1S(=O)(=O)N1CCOCC1 | inconclusive: 8.91 µM [inhibitor, partial curve, poor fit] | –
55 | CCOC(=O)Cc1c(C)c2c(O)cc(O)cc2oc1=O | inactive | –
56 | O=C(Nc1nccs1)c1ccc(-c2ccccc2[N+](=O)[O-])o1 | inactive | –
57 | Cc1cccc(C)c1NC(=O)CSc1nc(-c2cccs2)cc(C(F)(F)F)n1 | inactive | –
58 | CSc1ccc(CCNC(=O)c2c(C)oc3ncn(C)c(=O)c23)cc1 | inactive | –
59 | O=C(NCC(=O)N(c1ccc(Cl)cc1)C(C(=O)NC1CCCC1)c1cccnc1)c1ccco1 (centres undefined) | inactive | –
60 | O=C(Nc1ccccc1)c1ccc(CN2CCc3ccccc3C2)cc1 | inconclusive: 1.41 µM [inhibitor, full curve, poor fit] | –
61 | CC1CCCCN1C(=O)CCC(=O)Nc1nnc(C2CCCCC2)s1 (centres undefined) | inconclusive: 28.2 µM [inhibitor, single point] | –
62 | CC(=O)Nc1ccc(OS(=O)(=O)c2ccc(C)cc2C)cc1 | inconclusive: 28.2 µM [inhibitor, single point] | –
63 | O=C(c1ccc2c(c1)OCO2)C1CCCN(Cc2ccccc2OC(F)F)C1 (centres undefined) | inconclusive: 28.2 µM [inhibitor, single point] | –
64 | COc1ccc(N2CCN(C(=O)C3CCN(c4nc5ccc(C)cc5[nH]4)CC3)CC2)cc1 | inconclusive: 10 µM [inhibitor, partial curve, poor fit] | –
